{"source": "the supplement of paper PMC9446081", "note": "Screen size: about 39,000 compounds; about 220 (0.56%) showed activity. The list shows a part of the results.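 Further: static incubation at 37 °C against the wild-type strain, values averaged over two biological replicates.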"}
{"tested_on": "Escherichia coli K-12 BW25113", "test": "relative growth (OD600 normalised to plate interquartile mean) (fraction); higher = less growth inhibition, active = 0.2 or less", "conditions": "50 µM; LB; incubation time: overnight (16-24 h)"}
{"smiles": "COc1ccc(S(=O)(=O)Nc2ccc3c(c2)C(=O)N([C@@H](C)CO)C[C@@H](C)[C@H](CN(C)C(=O)NC2CCCCC2)OCCCC[C@@H](C)O3)cc1", "relative growth": "inactive: 0.998"}
{"smiles": "O=C(C[C@H]1CC[C@@H]2[C@H](COC[C@@H](O)CN2S(=O)(=O)c2ccccc2)O1)NCCN1CCCCC1", "relative growth": "inactive: 1.02"}
{"smiles": "C[C@@H]1CCCCO[C@@H](CN(C)C(=O)C2CCCCC2)[C@H](C)CN([C@@H](C)CO)C(=O)c2cc(NC(=O)c3ccncc3)ccc2O1", "relative growth": "inactive: 1"}
{"smiles": "COC1(NC(=O)Cc2cccs2)C(=O)N2C(C(=O)[O-])=C(COC(N)=O)CSC21.[Na+]", "note": "(centres undefined)", "relative growth": "active: 0.0688"}
{"smiles": "O=C1NC(=O)[C@@]2(CC[C@H](C(=O)O)C2)N1", "relative growth": "inactive: 1.01"}
{"smiles": "O=C(C[C@@H]1CC[C@@H](NC(=O)c2cnccn2)[C@H](CO)O1)NCc1ccccc1F", "relative growth": "inactive: 0.996"}
{"smiles": "C[C@H](CO)N1C[C@H](C)[C@H](CN(C)C(=O)CN(C)C)Oc2cc(C#CCC3CCCC3)ccc2S1(=O)=O", "relative growth": "inactive: 1"}
{"smiles": "O=c1c(-c2ccc(O)cc2)coc2cc(O)cc(O)c12", "relative growth": "inactive: 1.04"}
{"smiles": "C[C@@H]1CN([C@@H](C)CO)C(=O)c2cccc(NS(=O)(=O)c3cn(C)cn3)c2O[C@@H]1CN(C)Cc1ccccc1", "relative growth": "inactive: 1.02"}
{"smiles": "N[C@@H](c1ccccc1)c1cc2ccccc2cn1", "relative growth": "inactive: 0.942"}
{"smiles": "C[C@H]1CN([C@@H](C)CO)C(=O)c2cc(C#Cc3ccccc3F)cnc2O[C@@H]1CN(C)C(=O)C1CCOCC1", "relative growth": "inactive: 1"}
{"smiles": "C[C@@H]1CCCCO[C@@H](CN(C)CC2CC2)[C@@H](C)CN([C@H](C)CO)C(=O)c2cc(NC(=O)C3CCCCC3)ccc2O1", "relative growth": "inactive: 0.978"}
{"smiles": "C[C@@H]1CN([C@@H](C)CO)C(=O)c2cc(C#Cc3ccc(F)cc3)cnc2O[C@H]1CN(C)Cc1ccccn1", "relative growth": "inactive: 0.99"}
{"smiles": "COc1ccc(NC(=O)N(C)C[C@@H]2OCCCC[C@@H](C)Oc3ccc(NC(=O)C4CCCCC4)cc3C(=O)N([C@@H](C)CO)C[C@H]2C)cc1", "relative growth": "inactive: 0.992"}
{"smiles": "O=C1C=C2CC3(O)COc4cc(O)ccc4C3=C2C=C1O", "note": "(centres undefined)", "relative growth": "inactive: 1.12"}
{"smiles": "Cc1ccc(S(=O)(=O)Nc2ccc3c(c2)CC(=O)N([C@H](C)CO)C[C@@H](C)[C@H](CN(C)S(=O)(=O)c2c(C)noc2C)O3)cc1", "relative growth": "inactive: 0.996"}
{"smiles": "COc1ccc(NC(=O)Nc2ccc3c(c2)C(=O)N([C@H](C)CO)C[C@@H](C)[C@H](CN(C)S(=O)(=O)c2c(C)noc2C)OCCCC[C@@H](C)O3)cc1", "relative growth": "inactive: 1.01"}
{"smiles": "Cc1cc(C(=O)NN)n(C(C)(C)C)n1", "relative growth": "inactive: 1.04"}
{"smiles": "N[C@H](Cc1ccccc1)C(=O)O", "relative growth": "inactive: 0.922"}
{"smiles": "Cc1noc(C)c1S(=O)(=O)Nc1ccc2c(c1)CC(=O)N([C@@H](C)CO)C[C@@H](C)[C@@H](CN(C)S(=O)(=O)c1ccc(F)cc1)O2", "relative growth": "inactive: 1.05"}
{"smiles": "Cc1noc(C)c1NC(=O)N(C)C[C@H]1Oc2ccc(NS(=O)(=O)c3cccs3)cc2CC(=O)N([C@@H](C)CO)C[C@H]1C", "relative growth": "inactive: 1"}
{"smiles": "Cc1cn(C2CC(N=[N+]=[N-])C(CO)O2)c(=O)[nH]c1=O", "note": "(centres undefined)", "relative growth": "active: 0.0449"}
{"smiles": "CCc1nc2ccc(C(=O)Nc3ccc(OC)c(OC)c3)cn2c1N(CC)Cc1ccc(OC)c(OC)c1", "relative growth": "inactive: 1.01"}
{"smiles": "C[C@H]1CN([C@@H](C)CO)C(=O)c2cccc(NC(=O)Nc3ccc(C(F)(F)F)cc3)c2O[C@H]1CN(C)Cc1ccc(Oc2ccccc2)cc1", "relative growth": "inactive: 1.02"}
{"smiles": "C[C@@H](O)C#Cc1ccc2c(c1)O[C@H](CN(C)C)[C@@H](C)CN([C@@H](C)CO)S2(=O)=O", "relative growth": "inactive: 1.01"}
{"smiles": "Cc1ccc(S(=O)(=O)N[C@@H](Cc2ccccc2)C(=O)NCCCn2cc(-c3ccccc3N)nn2)cc1", "relative growth": "inactive: 0.988"}
{"smiles": "COCC(=O)N1CC[C@]2(CC1)CN([C@@H](CO)c1c2c2ccc(cc2n1C)OC)C(=O)Cc1ccccc1", "relative growth": "inactive: 1.01"}
{"smiles": "Cc1noc(C)c1S(=O)(=O)N(C)C[C@@H]1Oc2ccc(NC(=O)Nc3ccccc3)cc2CC(=O)N([C@H](C)CO)C[C@H]1C", "relative growth": "inactive: 1.01"}
{"smiles": "C[C@@H]1CN([C@@H](C)CO)C(=O)c2cccc(NC(=O)Nc3ccc(C(F)(F)F)cc3)c2O[C@@H]1CN(C)Cc1ccc2c(c1)OCO2", "relative growth": "inactive: 0.993"}
{"smiles": "Cn1cnc(S(=O)(=O)N[C@@H]2C=C[C@H](CC(=O)NCC3CC3)O[C@@H]2CO)c1", "relative growth": "inactive: 1"}
{"smiles": "NCc1ccno1", "relative growth": "inactive: 0.992"}
{"smiles": "CO[C@H](CN(C)C(=O)Nc1ccc(C(F)(F)F)cc1)[C@H](C)CN(Cc1ccccc1Cl)[C@@H](C)CO", "relative growth": "inactive: 1.01"}
{"smiles": "C[C@@H]1CCCCO[C@H](CN(C)S(=O)(=O)c2ccc(F)cc2)[C@@H](C)CN([C@@H](C)CO)C(=O)c2cc(NC(=O)Nc3cccc4ccccc34)ccc2O1", "relative growth": "inactive: 1.03"}
{"smiles": "Cc1noc(C)c1NC(=O)Nc1ccc2c(c1)C(=O)N([C@@H](C)CO)C[C@@H](C)[C@H](CN(C)S(C)(=O)=O)O2", "relative growth": "inactive: 0.962"}
{"smiles": "NNC(=O)Cc1nc2ccccc2[nH]1", "relative growth": "inactive: 1.03"}
{"smiles": "COc1ccc(S(=O)(=O)N(C)C[C@@H]2Oc3ccc(NS(C)(=O)=O)cc3CC(=O)N([C@@H](C)CO)C[C@H]2C)cc1", "relative growth": "inactive: 1.03"}
{"smiles": "CNC(=O)C[C@H]1CC[C@@H]2[C@H](COC[C@@H](O)CN2C(=O)Nc2cccc(OC)c2)O1", "relative growth": "inactive: 0.996"}
{"smiles": "CO[C@@H]1CN(C)C(=O)c2cc(NS(=O)(=O)c3cn(C)cn3)ccc2OC[C@H](C)N(Cc2cccc(F)c2)C[C@H]1C", "relative growth": "inactive: 0.984"}
{"smiles": "CO[C@@H]1CN(C)C(=O)c2ccc(NC(=O)C3CCOCC3)cc2OC[C@H](C)N(Cc2cccnc2)C[C@H]1C", "relative growth": "inactive: 1.03"}
{"smiles": "C[C@@H]1CCCCO[C@H](CN(C)S(C)(=O)=O)[C@@H](C)CN([C@H](C)CO)C(=O)c2cc(N(C)C)ccc2O1", "relative growth": "inactive: 0.947"}
{"smiles": "C[C@@H]1CCCCO[C@H](CN(C)C(=O)CCCN(C)C)[C@H](C)CN([C@@H](C)CO)C(=O)c2cc(N(C)C)ccc2O1", "relative growth": "inactive: 0.998"}
{"smiles": "COc1ccc(NC(=O)Nc2ccc3c(c2)C(=O)N([C@H](C)CO)C[C@H](C)[C@@H](CN(C)C(=O)NC(C)C)OCCCC[C@H](C)O3)cc1", "relative growth": "inactive: 1.01"}
{"smiles": "COc1ccc([C@H]2[C@@H](C(N)=O)C2(C#N)C#N)cc1", "relative growth": "inactive: 0.999"}
{"smiles": "N#C[C@H]1N[C@@H](CO)[C@H]1c1ccccc1", "relative growth": "inactive: 0.991"}
{"smiles": "C[C@H](CO)N1C[C@H](C)[C@H](CN(C)C(=O)NC2CCCCC2)OCCCC[C@H](C)Oc2ccc(NS(=O)(=O)c3ccc(Cl)cc3)cc2C1=O", "relative growth": "inactive: 1.02"}
{"smiles": "C[C@H]1CN([C@@H](C)CO)C(=O)c2cc(NC(=O)Nc3cccc4ccccc34)ccc2O[C@H]1CN(C)CC1CCCCC1", "relative growth": "inactive: 1.01"}
{"smiles": "CNC[C@@H]1Oc2c(NS(=O)(=O)c3cn(C)cn3)cccc2C(=O)N([C@H](C)CO)C[C@H]1C", "relative growth": "inactive: 1.02"}
{"smiles": "C[C@@H]1CN([C@H](C)CO)C(=O)c2cc(NC(=O)Cn3cnnn3)ccc2O[C@H]1CN(C)C(=O)Nc1cccc2ccccc12", "relative growth": "inactive: 1"}
{"smiles": "CNC(=O)C[C@H]1CC[C@H]2[C@@H](COC[C@H](O)CN2C(=O)c2ccccn2)O1", "relative growth": "inactive: 1.01"}
{"smiles": "C[C@@H]1CN([C@@H](C)CO)C(=O)c2cc(NC(=O)Nc3ccc4c(c3)OCO4)ccc2O[C@@H](C)CCCCO[C@H]1CN(C)CC1CCCCC1", "relative growth": "inactive: 0.994"}
{"smiles": "COC(=O)c1c2oc(c1C(=O)OC)C(=O)N[C@@H](Cc1ccccc1)Cn1cc(nn1)CNC(=O)[C@@H](Cc1ccccc1)NC(=O)N[C@@H](COC(=O)NCCCCCC(=O)NO)CC2", "relative growth": "inactive: 1.05"}
{"smiles": "Cc1ccc(S(=O)(=O)Nc2cccc3c2O[C@H](CN(C)Cc2ccc(C(F)(F)F)cc2)[C@@H](C)CN([C@@H](C)CO)C3=O)cc1", "relative growth": "inactive: 0.988"}
{"smiles": "CC(C)(O)C#Cc1ccc([C@@H]2[C@H]3CN(S(C)(=O)=O)CCCCN3[C@H]2CO)cc1", "relative growth": "inactive: 1.04"}
{"smiles": "CCCC#Cc1ccc2c(c1)O[C@@H](CN(C)C(=O)c1cnccn1)[C@H](C)CN([C@H](C)CO)S2(=O)=O", "relative growth": "inactive: 0.983"}
{"smiles": "COc1ccc(C#Cc2ccc3c(c2)O[C@H](CN(C)S(=O)(=O)c2ccccc2F)[C@H](C)CN([C@H](C)CO)S3(=O)=O)cc1", "relative growth": "inactive: 1.03"}
{"smiles": "Cn1cnc(S(=O)(=O)N[C@@H]2CC[C@H](CC(=O)Nc3ccccc3)O[C@H]2CO)c1", "relative growth": "inactive: 0.993"}
{"smiles": "O=S(=O)(O)O/N=C(\\Cc1ccc(O)cc1)S[C@H]1O[C@H](CO)[C@@H](O)[C@H](O)[C@H]1O", "relative growth": "inactive: 0.99"}
{"smiles": "CO[C@H](CN(C)C(=O)c1ccccc1F)[C@@H](C)CN([C@@H](C)CO)S(=O)(=O)c1ccc(Cl)cc1", "relative growth": "inactive: 0.989"}
{"smiles": "COc1cc(/C=C/C(=O)N2CCC=CC2=O)cc(OC)c1OCCOCCOCCOCCC(=O)OC(C)(C)C", "relative growth": "inactive: 0.988"}
{"smiles": "Cc1noc(C)c1S(=O)(=O)N(C)C[C@@H]1OCCCC[C@@H](C)Oc2ccc(NC(=O)Nc3ccccc3)cc2C(=O)N([C@@H](C)CO)C[C@@H]1C", "relative growth": "inactive: 1.01"}
{"smiles": "NC(=O)c1cccc(C(N)=O)c1", "relative growth": "inactive: 0.999"}
{"smiles": "C[C@@H]1CN([C@H](C)CO)C(=O)c2cc(C#CCN(C)C)cnc2O[C@H]1CN(C)C(=O)Nc1cccc(F)c1", "relative growth": "inactive: 1.01"}
{"smiles": "Cc1noc(C)c1NC(=O)N(C)C[C@@H]1Oc2ccc(NC(=O)NC(C)C)cc2CC(=O)N([C@H](C)CO)C[C@H]1C", "relative growth": "inactive: 0.97"}
{"smiles": "C[C@H](CO)N1C[C@H](C)[C@@H](CN(C)S(=O)(=O)c2ccc(Oc3ccccc3)nc2)OCc2cn(nn2)CCCC1=O", "relative growth": "inactive: 1.01"}
